Data from PubChem BioAssay AID1963319 (National Center for Advancing Translational Sciences (NCATS), 2024).
Out of some 1,300 compounds screened, about 120 (9.2%) were called active. The inconclusive results got no clear call from the source; some entries with a clear call stand among them for comparison. Calls come from the whole dose curve; as a rule, active = well fitted activation curve with a large enough effect; inconclusive = small, poorly fitted or top-dose-only effect; inactive = flat fitted curve, though single readings scatter. A potency beside an inconclusive call is a rough fit, not a confirmed value.

target: Luciferin 4-monooxygenase (Photinus pyralis) (UniProt P08659); assay: Firefly luciferase (FLuc-C-HiBiT) SDR gain of signal screen - plus ATP; conditions: purified FLuc-C-HiBiT + ATP, HiBiT complementation luminescence; series mostly up to 32.7 µM;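 note: signal reports ligand binding via conformational change of the enzyme rather than luciferase catalysis; nearly all actives have a fitted effect of over 55% in size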
Procedure, shortened: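 FLuc-C-HiBiT at 10 nM final with 10 uM ATP, incubated with compounds >30 min at room temperature. Nano-Glo HiBiT reagent then added; after 5-10 min, complementation luminescence read on CCD imager as gain of signal.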
Potency is the fitted concentration of half-maximal effect; tags give direction and shape of the fitted curve.

Sequence of UniProt P08659 (P08659 whole entry, looked up): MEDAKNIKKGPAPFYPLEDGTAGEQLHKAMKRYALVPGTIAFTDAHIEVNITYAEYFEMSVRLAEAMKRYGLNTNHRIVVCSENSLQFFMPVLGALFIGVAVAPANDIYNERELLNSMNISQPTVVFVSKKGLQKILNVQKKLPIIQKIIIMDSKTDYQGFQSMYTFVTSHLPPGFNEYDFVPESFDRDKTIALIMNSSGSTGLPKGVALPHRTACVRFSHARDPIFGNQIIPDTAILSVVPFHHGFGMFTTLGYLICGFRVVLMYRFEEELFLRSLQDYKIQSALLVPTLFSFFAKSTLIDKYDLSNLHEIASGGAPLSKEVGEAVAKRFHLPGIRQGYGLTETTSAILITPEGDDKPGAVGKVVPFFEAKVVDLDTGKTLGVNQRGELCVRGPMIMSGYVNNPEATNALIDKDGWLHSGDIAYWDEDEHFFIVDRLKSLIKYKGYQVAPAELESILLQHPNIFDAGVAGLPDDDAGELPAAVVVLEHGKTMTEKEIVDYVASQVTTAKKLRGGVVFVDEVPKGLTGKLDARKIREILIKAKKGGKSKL

| Structure (SMILES) | Potency |
| --- | --- |
| CCN1CCN(c2ccc(-c3cccc(N)c3)nn2)CC1 | inconclusive: 8.81 µM [activator, partial curve, poor fit] |
| CCc1ccc2oc(-c3cccc(NC(=O)c4cc5ccccc5o4)c3)nc2c1 | inactive |
| Cn1ccc2c(C(=O)NCc3cccnc3)nc(-c3ccc(N4CCOCC4)cc3)cc21 | inactive |
| Cc1ccc(C(=O)Nc2ccccc2C(=O)O)cc1S(=O)(=O)N1CCCCCC1 | inconclusive: 6.24 µM [activator, partial curve] |
| Nc1ccc2nc(-c3ccc(O)cc3)sc2c1 | inconclusive: 2.48 µM [activator, full curve] |
| COc1ccc(-c2noc([C@@H]3Cc4nc[nH]c4CN3C(=O)Nc3ccc(Cl)cc3)n2)cc1 | inactive |
| O=C(NCc1ccc(Cl)cc1)C1CCN(C(=O)c2ncn3c2COC(c2ccccc2)C3)CC1 (stereo unspecified) | inconclusive: 2.21 µM [activator, full curve] |
| N#Cc1c(-n2ncnc2-c2cccc(Cl)c2)sc2c1CCCCC2 | inconclusive: 1.57 µM [activator, full curve, poor fit] |
| O=C(Nc1cnc(-c2ccccc2)nc1)C1CCCC1 | inconclusive: 9.89 µM [activator, partial curve] |
| Cc1ccc(NC(=O)N2CCc3c(C(=O)NCCc4ccccn4)cccc32)cc1 | active: 11.1 µM |
| Cc1cccc(NC(=O)N2CCc3c(C(=O)N4CCN(C)CC4)cccc32)c1 | active: 2.48 µM |
| CC(NC(=O)c1cccc2c1CCN2C(=O)Nc1ccccc1)c1cccnc1 (stereo unspecified) | active: 3.13 µM |
| Cc1ccc(NC(=O)c2ncn(-c3ccccc3)n2)cc1Cl | inactive |
| COc1cccc(-c2nc3cc(NC(=O)c4ccc(F)c(C#N)c4)ccc3s2)c1 | inactive |
| O=C(Nc1nc2c(F)cccc2s1)c1ccc2c(c1)OCCO2 | inconclusive: 4.42 µM [activator, partial curve] |
| COc1ccc(-c2nc3ccccc3s2)cc1NC(=O)c1ccccc1OC | inactive |
| Cc1cccc(OCCn2nnc3sc4c(c3c2=O)CCCC4)c1 | inactive |
| Cc1ncccc1C(=O)N1CC(Oc2ccc(-c3nc(-c4ccccc4)no3)cc2)C1 | inconclusive: 2.48 µM [activator, full curve, poor fit] |
| O=C([C@@H]1C[C@@H](O)[C@H](O)[C@@H]2NC(=S)N(c3ccc(OC(F)(F)F)cc3)[C@@H]21)N1CCCCC1 | inconclusive: 14 µM [activator, partial curve, poor fit] |
| O=C(COc1ccccc1Cl)Nc1ccc(-c2nc3ccccc3s2)cc1 | inactive |
| CN(C)c1cccc(C(=O)NC2CCN(c3cc(-c4ccccc4)[nH]n3)C2)c1 (stereo unspecified) | active: 7.85 µM |
